According to article PMC4336329 (PLoS ONE, 2015):
Screen size: about 310,000 compounds; about 2,200 (0.71%) showed an effect of 50% or more. The effect is printed as a negative number. This is one part of the list.

The molecules below were run against human ether-à-go-go-related gene (hERG) potassium channel (human, UniProt Q12809) (assay: primary screen, population patch clamp on CHO cells stably expressing hERG).
Sequence of human ether-à-go-go-related gene (hERG) potassium channel (Q12809 whole entry, looked up): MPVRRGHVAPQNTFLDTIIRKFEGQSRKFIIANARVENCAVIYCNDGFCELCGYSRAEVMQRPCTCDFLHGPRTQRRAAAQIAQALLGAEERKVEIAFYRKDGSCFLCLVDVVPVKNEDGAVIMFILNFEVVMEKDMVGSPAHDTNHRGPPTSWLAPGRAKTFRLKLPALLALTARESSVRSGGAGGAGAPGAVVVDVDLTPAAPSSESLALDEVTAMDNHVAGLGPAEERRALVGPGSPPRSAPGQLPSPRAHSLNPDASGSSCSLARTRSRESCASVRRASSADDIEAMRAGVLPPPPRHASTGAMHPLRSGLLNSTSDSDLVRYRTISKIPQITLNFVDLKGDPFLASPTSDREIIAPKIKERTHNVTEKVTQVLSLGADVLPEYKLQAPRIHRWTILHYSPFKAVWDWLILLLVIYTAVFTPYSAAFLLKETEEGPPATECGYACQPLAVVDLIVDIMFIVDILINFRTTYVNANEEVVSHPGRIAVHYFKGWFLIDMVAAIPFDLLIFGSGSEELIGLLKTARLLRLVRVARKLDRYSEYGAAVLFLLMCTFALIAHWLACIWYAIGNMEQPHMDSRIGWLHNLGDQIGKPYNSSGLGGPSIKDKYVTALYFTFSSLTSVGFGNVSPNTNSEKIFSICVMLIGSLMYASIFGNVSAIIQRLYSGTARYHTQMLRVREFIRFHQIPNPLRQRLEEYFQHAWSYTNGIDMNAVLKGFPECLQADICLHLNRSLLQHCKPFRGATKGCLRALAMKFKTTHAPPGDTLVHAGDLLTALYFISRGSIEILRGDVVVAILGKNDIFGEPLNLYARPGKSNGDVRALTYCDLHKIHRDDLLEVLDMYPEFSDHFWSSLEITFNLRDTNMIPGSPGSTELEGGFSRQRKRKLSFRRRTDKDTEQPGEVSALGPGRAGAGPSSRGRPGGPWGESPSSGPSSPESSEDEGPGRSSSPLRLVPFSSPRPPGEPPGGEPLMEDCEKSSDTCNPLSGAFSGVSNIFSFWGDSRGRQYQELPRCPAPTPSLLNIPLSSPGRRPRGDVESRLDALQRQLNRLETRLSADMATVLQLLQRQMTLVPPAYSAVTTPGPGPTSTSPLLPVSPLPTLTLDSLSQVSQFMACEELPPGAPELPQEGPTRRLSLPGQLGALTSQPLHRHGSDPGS

Structure (SMILES) | hERG current change (%, negative = inhibition) at 1uM
CCO[C@@H]1OC(C(=O)NC2CC2)=C[C@H](c2ccc(Br)cc2)[C@H]1CCCO | 4.37%
Cc1ccc(CC2CC(=O)N(c3nc(C)cc(C)n3)C2=O)cc1 (stereo not shown) | 6.69%
COc1ccc(N2CCN(CC(O)c3c[nH]c4ccc(OC)cc34)CC2C)cc1 (stereo not shown) | -50.6%
CC(=O)n1cc(-c2ccncc2)c2ccccc21.Cl | 6.42%
N[C@@H](C(=O)N[C@@H]1C(=O)N2C(C(=O)O)=C(Cl)CS[C@H]12)c1ccccc1 | 16.4%
CCOc1ccc(CN(C)C(=O)[C@H](C)NC(=O)c2ccco2)cc1OC | 11%
C=CCn1c(=NC(=O)C2COc3ccccc3O2)sc2cc(S(N)(=O)=O)ccc21 (stereo not shown) | 11.9%
Cc1ccc(S(=O)(=O)Nc2cccc3cccnc23)cc1 | -7.95%
N#Cc1c(N2CCCCC2)nc(N)c2c(N)nc3c(c12)CC(CCl)O3 (stereo not shown) | 2.32%
Cn1c(O)c(C(=N)COc2ccccc2)c(=O)n(C)c1=O | -7.09%
CN1CCCN(Cc2ccccc2C(F)(F)F)CC1 | 14.8%
CCCN(C(=O)CSc1nc2c(cnn2-c2ccccc2)c(=O)[nH]1)C1CCS(=O)(=O)C1 (stereo not shown) | 7.76%
Cc1cccc2cc(CN(Cc3nnnn3Cc3ccccc3)C3CCCC3)c(=O)[nH]c12 | -2.4%
CC(C)(C)c1cc(C(=O)Nc2ccccc2)ccn1 | 11.7%
COc1ccc(C(=O)Nc2ncc3c(n2)CC(C)CC3=O)cc1 (stereo not shown) | 4.21%
CC(C)CC(C(=O)NC1CCCC1)N(Cc1cccs1)C(=O)c1snc(C(N)=O)c1N (stereo not shown) | -1.1%
CS(=O)(=O)c1ccc2nc(NC(=O)CCN3C(=O)c4ccccc4C3=O)sc2c1 | 12.4%
Cc1nc(SCC(=O)c2ccc(F)c(F)c2)[nH]c(=O)c1Oc1ccc(F)cc1 | 6.03%
COC/C=C/C1=CC2=CC(=O)C(C)(OC(=O)c3cnc4ccccc4n3)C(=O)C2=CN1Cc1ccc(OC)cc1 (stereo not shown) | 8.93%
Cc1cccc(OCC(=O)N(Cc2cccs2)C2CCS(=O)(=O)C2)c1 (stereo not shown) | -4.8%
Cc1ccc(S(=O)(=O)n2c([N+](=O)[O-])cnc2C)cc1C | 6.98%
Cc1ccc(NC(=O)CCCn2c(=O)oc3ccccc32)c(O)c1 | -4.64%

Structure (SMILES) | hERG current change (%, negative = inhibition) at 1uM
CSc1ccccc1NC(=O)CSc1nncs1 | 15.2%
O=C(CN1CCN(S(=O)(=O)c2ccc3ccccc3c2)CC1)NC(=O)NC1CCCCC1 | 10.7%
O=C(Nc1ccc2c(c1)OCO2)[C@@H]1CCCN1S(=O)(=O)c1cccc2cccnc12 | 14%
O=c1c2c(O)cc(O)cc2oc2ccc(O)c(O[C@@H]3O[C@H](CO)[C@@H](O)[C@H](O)[C@H]3O[C@H]3O[C@H](CO)[C@@H](O)[C@H](O)[C@H]3O)c12 | 12.1%
Cc1ccc(C)c(OCC(=O)Nc2ccc(C(=O)O)cc2NC(=O)COc2cc(C)ccc2C)c1 | 10.8%
CC(C)NC(=S)N/N=C/c1ccc(N2CCOCC2)cc1 | 11%
COc1ccc(NC(=O)c2ccc(-c3ccccc3C(F)(F)F)o2)cc1 | -1.26%
Cc1cc(C)n(-c2nc(N(C)C)nc(N3CCOCC3)n2)n1 | 2.1%
Cc1ccc(OCCNC(=O)CCc2ccccc2)cc1C | 3.29%
Cl.O=[N+]([O-])c1ccc(N2CCN(Cc3ccccc3)CC2)nc1 | -5.67%
COc1ccc(CNc2ccc(C(=O)O)cc2)cc1 | 13.5%
CCOC(=O)CSc1nnc([C@H](C)NC(=O)OC(C)(C)C)o1 | 0.92%
O=C(CN(C(=O)CCC(=O)Nc1nccs1)C1CCCC1)NCc1ccc2c(c1)OCO2 | 7.56%
CN(CC(=O)Nc1ccc(Cl)c(Cl)c1)C(=O)CC1OC(=O)c2ccccc21 (stereo not shown) | -11.9%
Fc1ccccc1COc1ccc(C(=S)N2CCCC2)cc1 | 10%
COc1ccc(/C=C2/SC(=O)N(CCC(=O)Nc3ccccc3C(=O)O)C2=S)cc1 | 7.34%
COc1cc(Cl)c(C)cc1NC(=O)CSc1nnc(-c2ccco2)n1CC(C)C | -6.76%
O=C(NNC(=O)c1cccs1)c1ccc(F)cc1 | 19.6%
OCCC1CN(Cc2cccn2-c2ncccn2)CCN1CCc1ccccc1 (stereo not shown) | -44.6%
CCn1c(-c2cc(-c3cccc(OC)c3)nc3ccccc23)n[nH]c1=S | 4.82%
Cc1ccc(NC2CCCN(C(=O)c3snnc3C)C2)cc1C (stereo not shown) | 13.4%
